assay: soluble on expression in E. coli; label from the status in PepcDB or PDB records

| Sequence | soluble on expression in E. coli |
| --- | --- |
| MAAIRKKLVIVGDGACGKTCLLIVFSKDQFPDVYVPTVFENYVADIEVDGKQVELALWDTAGQEDYDRLRPLSYPDTDVILMCFSIDSPDSLENIPEKWTPEVRHFCPNVPIILVGNKRDLRSDPQTVRELAKMKQEPVKPEQGRAIAEQIGAFAYLECSAKTKDGIREVFEKATQAALQQKKKKKSKCMIL | not soluble |
| MDSQGRKVIVVDNGTGFVKCGYAGTNFPAHIFPSMVGRPIVRSTQRVGNIEIKDLMVGEECSQLRQMLDINYPMDNGIVRNWDDMAHVWDHTFGPEKLDIDPKECKLLLTEPPLNPNSNREKMFQVMFEQYGFNSIYVAVQAVLTLYAQGLLTGVVVDSGDGVTHICPVYEGFALHHLTRRLDIAGRDITKYLIKLLLQRGYNFNHSADFETVRQMKEKLCYIAYDVEQEERLALETTVLSQQYTLPDGRVIRLGGERFEAPEILFQPHLINVEKAGLSELLFGCIQASDIDTRLDFYKHIVLSGGTTMYPGLPSRLEKELKQLYLDRVLHGNTDAFQKFKIRIEAPPSRKHMVFLGGAVLANLMKDRDQDFWVSKKEYEEGGIARCMAKLGIKA | not soluble |
| MGHHHHHHSHMEIGSAGPAGAQPLLMVPRRPGYGTMGKPIKLLANCFQVEIPKIDVYLYEVDIKPDKCPRRVNREVVDSMVQHFKVTIFGDRRPVYDGKRSLYTANPLPVATTGVDLDVTLPGEGGKDRPFKVSIKFVSRVSWHLLHEVLTGRTLPEPLELDKPISTNPAHAVDVVLRHLPSMKYTPVGRSFFSAPEGYDHPLGGGREVWFGFHQSVRPAMWKMMLNIDERDLWQQCGE | not soluble |
| MKLIESNDTVVFPEGVTFTVKNRIVHVTGPRGTIRKDFRHLHMEMERIGKSTLRVRKWFGVRKELAAIRTVCSHIKNMIKGVTVGFRYKMRSVYAHFPINVTLQDGNRTVEIRNFLGEKIVRRVPLPEGVIATISTAQKDEIVVEGNDVQFVSQAAARIQQSTAVKEKDIRKFLDGIYVSEKTTIVPTD | soluble |
| MKVNPFVSSDSGKSRKAHFNAPSHERRRIMSAPLTKELRTKHGIRAIPIRTDDEVVVMRGRHKGNTGRVLRCYRKKFVIHIDKITREKANGSTVHIGIHPSKVAITKLKLDKDRRALVERKAAGRSRVTGILKGKHTDETVN | soluble |
| MLRHKTKRGHASLDCLKVFDGIPPPYDKKKRMVVPAALKVVRLKPTRKFALLGRQAQEVRWKYQAVTATLEEKRKEKAKIHYWKKKQLMRLRKQAEKNVKKN | not soluble |
| TCVFEKENDPTVLRSPSAGKLTQYTVEDGGHVEAGSSYAEMEVMKMIMTLNVQERGRVKYIKRPGAVLEAGCVVARLELDDPSKVHP | soluble |
| YPLDGAARGEDTSMNLVQKYLENYYDLKKDVKQFVRRKDSGPVVKKIREMQKFLGLEVTGKLDSDTLEVMRKPRCGVPDVGHFRTFPGIPKWRKTHLTYRIVNYTPDLPKDAVDSAVEKALKVWEEVTPLTFSRLYEGEADIMISFAVREHGDFYPFDGPGNVLAHAYAPGPGINGDAHFDDDEQWTKDTTGTNLFLVAAHEIGHSLGLFHSANTEALMYPLYHSLTDLTRFRLSQDDINGIQSLYGPPPDSPET | soluble |
